Data: article PMC6919601, “Identification of Plasmodium dipeptidyl aminopeptidase allosteric inhibitors by high throughput screening” (PLoS ONE, 2019)
Out of some 110,000 compounds screened, about 230 (0.21%) showed an effect of 50% or more. The list shows a part of the results.

molecular target: DPAP1 (Plasmodium falciparum, UniProt Q8IIJ9); assay: primary screen, percent inhibition; read by cleavage of a fluorogenic dipeptide substrate; higher = more effect of the substance; parameters: species or system P. falciparum D10 trophozoite lysates; single well
Sequence (Q8IIJ9 whole entry, looked up): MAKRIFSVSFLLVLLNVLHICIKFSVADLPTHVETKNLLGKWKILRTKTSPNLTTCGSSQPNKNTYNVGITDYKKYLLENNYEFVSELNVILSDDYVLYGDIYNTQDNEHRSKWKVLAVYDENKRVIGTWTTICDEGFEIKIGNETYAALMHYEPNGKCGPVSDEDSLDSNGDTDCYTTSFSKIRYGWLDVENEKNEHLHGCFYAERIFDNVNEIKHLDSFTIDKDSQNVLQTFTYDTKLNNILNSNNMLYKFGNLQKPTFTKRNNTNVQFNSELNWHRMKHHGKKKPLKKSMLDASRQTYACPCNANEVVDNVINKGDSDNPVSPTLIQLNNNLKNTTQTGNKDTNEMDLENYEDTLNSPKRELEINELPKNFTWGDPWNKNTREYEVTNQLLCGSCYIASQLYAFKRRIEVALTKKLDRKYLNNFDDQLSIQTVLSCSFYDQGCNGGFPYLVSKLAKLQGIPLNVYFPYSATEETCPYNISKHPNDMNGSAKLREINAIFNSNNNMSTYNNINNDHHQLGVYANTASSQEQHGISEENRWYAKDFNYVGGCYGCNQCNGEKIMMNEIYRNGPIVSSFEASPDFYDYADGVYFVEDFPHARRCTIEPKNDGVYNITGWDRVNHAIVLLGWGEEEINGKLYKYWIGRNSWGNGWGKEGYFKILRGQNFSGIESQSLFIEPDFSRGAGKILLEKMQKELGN
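Also: 30 min substrate incubation versus DMSO and 10 µM JCP410 controls.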

Structure (SMILES)	% Inhibition @ 10 uM [%]
CCCCOc1ccccc1C1C(C#N)=C(N)OC2=C1C(=O)CC(C)(C)C2 (centres unmarked)	2.36
Cc1ccc(S(=O)(=O)NCc2ccc(C(=O)NC(C)C34C[C@H]5C[C@@H](C3)C[C@@H](C4)C5)cc2)cc1 (some centres unmarked)	-2.72
CCCCn1c(CNC(=O)CCC)nc2ccccc21	1.94
COc1ccc(CN2CCN(c3ccc(F)cc3)CC2)cc1Br	-2.92
COc1cc(CCNCc2c(C(=O)O)n(C)c3cc(C)ccc23)cc(OC)c1OC	0.16
C=CCOc1ccc(/C=C2\C(=O)N(C)C(C)=C2C(=O)OC)cc1OC	-3.4
CC(C)(C)NS(=O)(=O)c1ccccc1Cl	-3.38
COc1ccc(CN2CCN(C(=O)c3cc(OC)c(OC)c(OC)c3)CC2)cc1OC	2.03
COc1ccc(CCNC(=O)Cc2c(C)c3ccc(O)cc3oc2=O)cc1	-0.808
O=C(C1CCN(c2ncnc3c2nc2n3CCCCC2)CC1)N1CCOCC1	0.00353
CC1CCN(C(=O)Nc2noc3c2COc2ccccc2-3)CC1	-3.47
Cc1cc(C)nc(-n2nc(C)c3c2NC(=O)CC3c2ccccc2C)n1 (centres unmarked)	-2.88
CCCCNc1oc(/C=C/c2ccc(F)cc2)nc1C#N	4.13
COC(=O)c1sccc1NC(=O)C1=Cc2sc3c(c2CS1)CCCC3	6.31
Cn1nc(-c2ccccc2F)c2cc(C(=O)N3CCN(Cc4ccccc4)CC3)sc21	3.63
C=CCn1cc(/C=C2/NC(=O)N(Cc3ccccc3F)C2=O)c2ccccc21	-0.0626
CCOc1ccccc1NC(=O)CN(c1ccc(C)cc1)S(=O)(=O)c1ccc(C)cc1	5.28
COCCNC(=O)c1cc2c(=O)n3ccccc3nc2n1C	1.84
COc1cc(CN(C)C2CCN(C)CC2)cc(Br)c1O	-2.7
Clc1cccc(N2CCN(Cc3ccc(Cl)cc3Cl)CC2)c1	-1.93
COc1ccc(CNC(=O)CN(C2CCCCC2)S(C)(=O)=O)cc1	0.408
COc1ccccc1N1CCN(Cc2ccc(SC)cc2)CC1	1.63
O=C(Nc1nnc(-c2ccncc2)s1)C(=O)c1c[nH]c2ccccc12	3.72
Cn1c2ccccc2c2cc(C(=O)O)ccc21	2.46
Cc1noc(NS(=O)(=O)c2ccc(NC(=O)C34CC5CC(CC(C5)C3)C4)cc2)c1C	0.5

Structure (SMILES)	% Inhibition @ 10 uM [%]
CCCc1ccc(-c2ccc(OC(F)(F)F)cc2)nc1	-1.59
N#CC1=C(N)Oc2[nH]nc(-c3cccs3)c2C1c1cccnc1 (centres unmarked)	5.18
Cc1ccc(S(=O)(=O)Nc2cccc(C(=O)NCCC(C)C)c2)cc1	3.49
CC1=CC(C)C2(CO)COC(c3cccnc3)C1C2C (centres unmarked)	1.54
Cc1ccccc1S(=O)(=O)Cc1ccc(C(=O)NC(C)C)o1	-0.971
C=CCn1c(SCC(=O)N2CCCCC2)nc(O)cc1=O	-6.82
Cc1cccc2nc(-c3cccs3)c(NC3CCCCC3)n12	-3.21
Nc1c(C(=O)C2CC2)sc2nc(-c3cccs3)cc(C(F)(F)F)c12	8.36
NC12CC3CC(C1)CC(O)(C3)C2	-1.29
CCOC(=O)CN1CCn2c3c(c4cc(C)ccc42)CCCC31 (centres unmarked)	4.7
O=C(CCN1CCOCC1)N1N=C(c2ccccc2)CC1c1ccco1 (centres unmarked)	5.77
COc1ccc(C2CC(=O)Oc3c2c(=O)oc2ccccc32)cc1COc1ccc(F)cc1F (centres unmarked)	2.77
COc1cc(NC(=O)c2cccs2)c2ncccc2c1	1.27
C=CCSc1nc(=O)c2c(n1C)NC(=O)CC2c1cccc(O)c1 (centres unmarked)	-1.11
COc1cc(C2c3c(oc4ccccc4c3=O)C(=O)N2Cc2ccccc2)cc(Br)c1O (centres unmarked)	-1.33
CCOCCCNC(=O)/C(C#N)=C/c1c(Oc2ccc(Cl)c(C)c2)nc2c(C)cccn2c1=O	2
CCOc1cc(C2CC(=O)NC3=C2C(=O)CCC3)ccc1O (centres unmarked)	1.76
CCOc1ccc(/C=C2\SC(=O)N(Cc3ccc(F)cc3)C2=O)c(OCC)c1	0.131
CC(C)C(=O)N(Cc1ccccc1)c1cccc([N+](=O)[O-])c1	1.21
CCOc1ccc(CCNC(=O)C2CC(=O)N(Cc3ccc(OC)cc3)C2)cc1OCC (centres unmarked)	4.81
N#CC1=C(N)Oc2c(c(O)nc3ccccc23)C1c1ccc(F)cc1 (centres unmarked)	0.76
O=C(Cc1cccs1)Nc1ccc(-c2nc(O)c3ccccc3n2)cc1	-3.24
COC(=O)c1c(C)c(O)nc2ccccc12	-3.41
CCCn1nnnc1NCc1ccccc1OCc1cccs1	-3.63
O=C(Nc1ccc2ccccc2c1)C1CCCCC1	-1.25
